# According to PubChem BioAssay AID624296 (National Center for Advancing Translational Sciences (NCATS), 2012):
# Out of some 350,000 compounds screened, about 9,900 (2.8%) were called active. The shares of active, inactive and inconclusive entries below differ from those in the screen. Calls follow the shape of the dose curve; as a rule, active = well fitted activation curve with a large enough effect; inconclusive = small, poorly fitted or top-dose-only effect; inactive = no such curve, though single readings can be large or run the other way. No potency is given beside an inconclusive call; the fits are too rough.
# Assay: A quantitative high throughput screen for small molecules that induce DNA re-replication in MCF 10a normal breast cells. Also: nearly all actives have a fitted effect of over 50% in size.
# Settings: MCF 10A DNA re-replication, Hoechst nuclear intensity, 48 h; series mostly up to 46.1 µM
# Potency is read from the fitted curve at half-maximal effect; tags tell the direction and shape of the fitted curve.
row,SMILES,Potency
1,CCN1CCC(O)(c2ccccc2)C(C(=O)c2ccccc2)C1 (centres undefined),"inconclusive [activator, single point]"
2,O=C1NC(=O)N(c2ccc3c(c2)OCO3)C(=O)/C1=C\c1ccsc1,"inconclusive [activator, partial curve, poor fit]"
3,CNC(=O)CSP(=S)(OC)OC,"inconclusive [activator, full curve]"
4,OC1(c2ccc(F)cc2)CC2CCC(C1)N2Cc1nnnn1C1CCCC1 (centres undefined),inactive
5,S=C=Nc1cccc(C2(N3CCCCC3)CCCCC2)c1,"inconclusive [activator, single point]"
6,Cc1ccc(-c2nc3ccccc3c(=O)n2-c2cccc(O)c2)cc1,"inconclusive [activator, partial curve, poor fit]"
7,O=C(Nc1ccc(F)cc1)OC1CN2CCC1CC2 (centres undefined),active: 8.2 µM
8,COc1cc(NS(=O)(=O)c2ccc3c(c2)oc(=O)n3C)cc(OC)c1OC,"inconclusive [activator, single point]"
9,Oc1c(Br)c(Br)c(Br)c(Br)c1Br,"inconclusive [activator, single point]"
10,BrCC(Br)(Br)Br,"inconclusive [activator, full curve, poor fit]"
11,COC(=O)C1=C(c2ccc(F)cc2OCc2ccccc2)C[C@@H]2CC[C@H]1N2C(=O)N1CCC(C)CC1,"inconclusive [activator, single point]"
12,Cc1ccc(N2C(=O)NC(=O)/C(=C\C=C\c3ccco3)C2=O)cc1,active: 7.31 µM
13,CCOC(=O)[C@]12Cc3ccsc3[C@H]1N(Cc1ccccc1)C(=O)c1ccccc12,"inconclusive [activator, single point]"
14,Fc1ccccc1CSc1ncnc2c1ncn2C1CCCO1 (centres undefined),"inconclusive [activator, full curve, poor fit]"
15,O=Cc1ccco1,inactive
16,c1ccc2ccccc2c1,inactive
17,Cc1[nH]n(-c2ccccc2)c(=O)c1C(C[N+](=O)[O-])c1ccccc1Cl (centres undefined),"inconclusive [activator, single point]"
18,COc1cc2c(cc1OC)-c1c3c(cc4c1[C@@H](C2)N(C)CC4)OCO3,"inconclusive [activator, single point]"
19,COc1ccc(CN2C(=O)NC(=O)/C(=C\c3cc(OC)c(OC)c(OC)c3)C2=O)cc1,"inconclusive [activator, partial curve, poor fit]"
20,CNC(C)Cc1ccccc1 (centres undefined),inactive
21,Oc1ccccc1C1NCc2ccccc2-n2cccc21 (centres undefined),"inconclusive [activator, partial curve, poor fit]"
22,O=C(N/N=C/c1cc(Br)c(Br)s1)c1ccncc1,"inconclusive [activator, partial curve, poor fit]"
23,Cc1ccc(/C=C2\C(=O)NC(=O)N(Cc3ccccc3Cl)C2=O)o1,"inconclusive [activator, single point]"

row,SMILES,Potency
1,COc1cc2[nH]c(=O)n(-c3ccccc3)c(=O)c2cc1OC,"inconclusive [activator, partial curve, poor fit]"
2,CC1=CC2OC3CC4OC(=O)C=CC=CC(C(C)O)OCC(O)C5(C)OC5C(=O)OCC2(CC1O)C4(C)C31CO1 (centres undefined),inactive
3,O=C(Cc1ccccc1)N1CCN(CCCc2ccccc2)CC1,"inconclusive [activator, partial curve, poor fit]"
4,O=c1[nH]c(O)c(N=Nc2ccc([N+](=O)[O-])cc2)c(=O)[nH]1,"inconclusive [activator, full curve, poor fit]"
5,C[C@H]1[C@@H](OS(=O)(=O)O)C[C@@H]2C[C@H]([C@@H](O)c3cc(=O)[nH]c(=O)[nH]3)NC3=NC[C@H]1N32,"inconclusive [activator, single point]"
6,CC1CCN(C(=O)N2c3ccccc3Sc3ccccc32)CC1,"inconclusive [activator, single point]"
7,CN1/C(=C\C=C2C(=O)NC(=O)NC2=O)C(C)(C)c2ccccc21,inactive
8,CCC(C)(C)NC(=O)Cn1c(=O)oc2cc(S(=O)(=O)N3CC(C)CC(C)C3)ccc21 (centres undefined),"inconclusive [activator, partial curve, poor fit]"
9,Cc1ccccc1CN1CCN(c2ccc(Cl)cc2)CC1,"inconclusive [activator, partial curve, poor fit]"
10,O=P(N1CCCCCC1)(N1CCCCCC1)N1CC1,inactive
11,CCCCCSc1cc(OC)c(CCN)cc1OC,"inconclusive [activator, single point]"
12,CC1CCCC(C2(O)C(=O)Nc3ccccc32)C1=O (centres undefined),"inconclusive [activator, partial curve, poor fit]"
13,O=C(COC(=O)c1ccc(O)cc1)Nc1ccc(Cl)cc1C(=O)c1ccccc1,"inconclusive [activator, partial curve, poor fit]"
14,Cc1ccc(OCC(=O)N2CCCC(N3CCN(c4ccc(F)cc4)CC3)C2)cc1 (centres undefined),inactive
15,CC(O)(CS(=O)(=O)c1ccccc1)C(=O)Nc1cccc(C(F)(F)F)c1 (centres undefined),inactive
16,N#CC(C#N)=NNc1ccc(S(=O)(=O)N2CCCC2)cc1,"inconclusive [activator, single point]"
17,OCCOCCO,"inconclusive [activator, full curve, poor fit]"
18,CCOP(=O)(/C=C(\Cl)c1ccccc1)C(O)c1ccc(F)cc1 (centres undefined),inactive
19,CC(=NCc1ccco1)c1c(O)n(-c2ccc(C)cc2)c(=O)[nH]c1=O,inactive
20,O=C1NC(=S)NC(=O)C1c1ccccc1,inactive
21,C[C@@H]1C(=O)O[C@@H]2[C@H](O)C34[C@@H]5OC(=O)C3(O[C@H]3OC(=O)[C@H](O)C34[C@H](C(C)(C)C)[C@H]5O)[C@@]12O (some centres undefined),"inconclusive [activator, partial curve, poor fit]"
22,Cc1ccsc1/C=C1\C(=O)NC(=S)N(C)C1=O,inactive
23,CCOC(=O)c1c(C)n(Cc2ccc3c(c2)OCO3)c2ccc(O)cc12,"inconclusive [activator, partial curve, poor fit]"

row,SMILES,Potency
1,COC(=O)C1=C(c2ccc(F)cc2OCc2ccccc2)C[C@@H]2CC[C@H]1N2C(=O)N1CCCCC1,"inconclusive [activator, single point]"
2,COc1ccc(OC)c(CN2CCN(C(=O)COc3cccc(C)c3)CC2)c1,inactive
3,O=C1C=CC2C3C(=O)N(c4ccccc4)C(=O)C3C1N2Cc1ccccc1 (centres undefined),"inconclusive [activator, single point]"
4,CCc1ccc(CNCCc2c[nH]c3ccccc23)cc1,"inconclusive [activator, single point]"
5,CCc1cc2c(=O)n(C(C)C(=O)OC3CCCCC3)cnc2s1 (centres undefined),"inconclusive [activator, partial curve, poor fit]"
6,Cc1cc(N(CCCl)CCCl)ccc1/C=N/NC(=O)c1ccco1,"inconclusive [activator, partial curve, poor fit]"
7,NC(=O)c1cc(N2CC2)c([N+](=O)[O-])cc1[N+](=O)[O-],"inconclusive [activator, full curve, poor fit]"
8,Cc1ccc(S(=O)(=O)CC(C)(O)C(=O)Nc2cccc(C(F)(F)F)c2)cc1 (centres undefined),inactive
9,COc1ccc(NP(=O)(Oc2ccc(Cl)cc2)Oc2ccc(Cl)cc2)cc1OC,"inconclusive [activator, single point]"
10,COc1ccc(-c2c3c(nc4sc5c(Cl)nc(C)nc5c24)CCC3)cc1,"inconclusive [activator, full curve, poor fit]"
11,O=C(Nc1ccc(Br)cc1C(=O)O)c1ccc2c(c1)C(=O)N(Cc1ccccc1)C2=O,"inconclusive [activator, full curve, poor fit]"
12,[Cl-].[Cl-].[Hg+2],"inconclusive [activator, full curve, poor fit]"
13,COc1ccc(CC2C(=O)NC(C)C(=O)N(C)C3C(=O)N(C)C(Cc4ccc(O)c(c4)Oc4ccc(cc4)C3O)C(=O)NC(C)C(=O)NC(C)C(=O)N2C)cc1 (centres undefined),active: 0.259 µM
14,FC(F)(F)c1ccccc1N1CC1c1ccncc1 (centres undefined),inactive
15,CCOC(=O)C(NS(=O)(=O)c1ccc(C)cc1)(C(F)(F)F)P(=O)(OCC(C)C)OCC(C)C (centres undefined),"inconclusive [activator, single point]"
16,Cc1ccc(-n2c(O)c(/C=N/N3CCCCCC3)c(=O)[nH]c2=O)cc1C,"inconclusive [activator, partial curve, poor fit]"
17,C[C@H]1C=CC(=O)O[C@H]1c1ccccc1,"inconclusive [activator, single point]"
18,O=c1c2ccccc2nc(-c2cccs2)n1-c1ccccc1,inactive
19,CCN(CC)c1ccc2c(cc1=O)[C@@H](NC)CCc1cc(OC)c(OC)c(OC)c1-2,active: 1.3 µM
20,CN1CCC(O)(c2ccc(F)cc2)C(C(=O)c2ccc(F)cc2)C1 (centres undefined),active: 26.6 µM
21,S=C(S)N1CCNCC1,inactive
22,O=C(Cc1c[nH]c2ccccc12)NNCc1ccc(N(CCCl)CCCl)cc1,inactive
23,O=C(CCN1CCCCC1)NCC(=O)Nc1ccc(Br)cc1C(=O)c1ccccc1,"inconclusive [activator, partial curve, poor fit]"
